Measured values reported in the supplement of paper PMC7125110.
± gives the standard error. Variants at the background level are over-represented here.

B1: glmS ribozyme (parent)
chain: AUAAAAGCGCCAGAACUACAGAAAUGUAGUUGACGAGGAGGAGGUUUAUCGAAUUUUCGGCGGAUGCCUCCAAA

Experiments:
Details in all cases: with glucosamine-6-phosphate
glucosamine-6-phosphate [1] = variants of: B1; assay: self-cleavage kobs at 40 uM GlcN6P; higher = faster cleavage; RNA array
Procedure, shortened: (§1)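 Using a hybridised Cy3 probe at 37 °C, barcoded ribozyme variants transcribed in situ by E. coli RNA polymerase on sequenced MiSeq chips were monitored across tiles imaged over ~14 h. The flow contained glucosamine-6-phosphate from 40 μM to 10 mM in HEPES/KCl/Mg(OAc)2 buffer. Signals were normalised to baseline and to non-cleaving reference variants before per-tile medians were fit to one- or two-exponential decays to yield kobs. Weighted Michaelis–Menten fits across concentrations gave kcat and KM.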

glucosamine-6-phosphate [2] = variants of: B1; assay: self-cleavage kobs at 640 uM GlcN6P; higher = faster cleavage; RNA array
Procedure, shortened: as §1

glucosamine-6-phosphate [3] = variants of: B1; assay: self-cleavage kobs at 160 uM GlcN6P; higher = faster cleavage; RNA array
Procedure, shortened: as §1

glucosamine-6-phosphate [4] = variants of: B1; assay: self-cleavage kobs at 2500 uM GlcN6P; higher = faster cleavage; RNA array
Procedure, shortened: as §1

glucosamine-6-phosphate [5] = variants of: B1; assay: self-cleavage kobs at 10000 uM GlcN6P; higher = faster cleavage; RNA array
Procedure, shortened: as §1

Row | Variant | self-cleavage kobs at 40 uM GlcN6P (glucosamine-6-phosphate [1]) [s⁻¹] | self-cleavage kobs at 640 uM GlcN6P (glucosamine-6-phosphate [2]) [s⁻¹] | self-cleavage kobs at 160 uM GlcN6P (glucosamine-6-phosphate [3]) [s⁻¹] | self-cleavage kobs at 2500 uM GlcN6P (glucosamine-6-phosphate [4]) [s⁻¹] | self-cleavage kobs at 10000 uM GlcN6P (glucosamine-6-phosphate [5]) [s⁻¹]
1 | AUAAAAGCGCCAGAACUACAGAAAUGUAGUUGACGAGGUGGAGGAUUAUCGAAUUUUCGGCGGAUGCCUCCAAA | 0.000759 ± 9.8e-05 | 0.0067 ± 0.0015 | 0.00209 ± 0.00053 | 0.0135 ± 0.0033 | 0.0807 ± 0.02
2 | AUAAAAGCGCCAGAACUACAGAAAUGUAGUUGACGAGAAGGAGGUUUAGCGAAUUUUCGGCGGAUGCCUCCAAA | < 1e-05 | < 1e-05 | < 1e-05 |  | 
3 | AUAAAAGCGCCAGAACUACAGAAAUGUAGUUGACGAGGUGGAGGUUUAUCGAAUUUUCGGCGGAUGCCUCCAAA | 0.000604 ± 1e-05 |  |  |  | 
4 | AUAAAAGCGCCAGAACUACAGAAAUGUAGUUGACGAGGAAGAGGUUUAUCGAAUUUUCGGCGGAAGCCUCCAAA | 3.89e-05 ± 8.4e-06 | 0.000213 ± 4.3e-05 | 7.08e-05 ± 1.3e-05 | 0.000615 ± 0.00011 | 0.00106 ± 0.00012
5 | AUAAAAGCGCCAGAACUACAGAAAUGUAGUUGACGAGAAGGAGGUCUAUCGACCUUUCGGCGGAUGCAUCCAAA | < 1e-05 |  |  |  | < 1e-05
6 | AUAAAAGCGCCAGAACUACAGAAAUGUAGUUGACGAGGAAGAGGUUUAUCGAAUUUUCGGGGGAUGCCUCCAAA | < 1e-05 | < 1e-05 | < 1e-05 | < 1e-05 | < 1e-05
7 | AUAAAAGCGCCAGAACUACAGAAAUGUAGUUGACGAGGUGGAGGUUUAUCGAAUUUUCGGCCGAUGCCUCCAAA | < 1e-05 | < 1e-05 | < 1e-05 | < 1e-05 | < 1e-05
8 | AUAAAAGCGCCAGAACUACAGAAAUGUAGUUGACGAUGAGGAGGUUUAUCGAAAUUUCGGCGGAUGCCUCCAAA | < 1e-05 |  |  |  | 
9 | AUAAAAGCGCCAGAACUACAGAAAUGUAGUUGACGAGUAGGAUGUUUAUCGAAUUUUCGGCGGAUGCCUCGAAA | < 1e-05 |  |  |  | < 1e-05
10 | AUAAAAGCGCCAGAACUACAGAAAUGUAGUUGACGAGGCGGAGGUUUAUCGAAUUGUCGGCGGAUGCCUCCAAA | 5.55e-05 ± 7.3e-06 |  |  |  | 
11 | AUAAAAGCGCCAGAACUACAGAAAUGUAGUUGACGAGAAGGAGGUCUAUCGAAUUUUCGGCGGAUGCCUCCAAA | < 1e-05 | < 1e-05 | < 1e-05 | < 1e-05 | 
12 | AUAAAAGCGCCAGAACUACAGAAAUGUAGUUGACGAUGAGGAGGUUUAUCGAAUUUACGGCGGAUGCCUCUAAA | < 1e-05 |  |  |  | < 1e-05
13 | AUAAAAGCGCCAGAACUACAGAAAUGUAGUUGACGAGUAGGAGUUUUAUCGAAUUUUCGACGGAUGCCUCCAAA | < 1e-05 |  |  |  | < 1e-05
14 | AUAAAAGCGCCAGAACUACAGAAAUGUAGUUGACGAGGGGGAGGUUUAUCGAAUUUUCGUCGGAUGCCUCCAAA | < 1e-05 |  |  |  | 
